Laboratory results reported in a collection of fitness landscapes (doi:10.1016/j.celrep.2020.107928).
The full ranking holds about 81,000 sequences; the median of “one-hybrid fitness for binding NBS DNA” is about -0.1, and the highest 2% start at about 0.36. The list shows a part of the results.

B1: Caulobacter ParB omega fusion; a variant is named by its letters at X, in order, B8GW30 (parent)
chain: MESVVVGEPGMSEGRRGLGRGLSALLGEVDAAPAQAPGEQLGGSREAPIEILQRNPDQPRRTFREEDLEDLSNSIREKGVLQPILVRPSPDTAGEYQIVAGERAWRAAQRAGLKTVPIMVRELDDLAVLEIGIIENVQRADLNVLEEALSYKVLMEKFERTQENIAQTIGKSXSHVANXMRLLXLPDEVQSYLVSGELTAXHARAIAAAADPVALAKQIIEGGLSVRETEALARKAPNLSAGKSKGGRPPRVKDTDTQALESDLSSVLGLDVSIDHRGSTGTLTITYATLEQLDDLCNRLTRGI

Variants of: B1
Assay: one-hybrid fitness for binding NBS DNA (the Noc-binding site; scaled: cognate 1, non-cognate 0); higher = stronger binding
Conditions: with NBS DNA site
Method in brief: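 Selection: bacterial one-hybrid in E. coli USO, HIS3 reporter with the site 19 bp from the promoter, 48 hours at 37°C on M9-minus-histidine plus 0.1 mM IPTG and 5 mM 3-AT. Libraries were Caulobacter ParB with four randomised specificity codons, sequenced on Illumina before and after selection. Fitness is the rescaled log change in variant-to-wild-type read ratio, anchored to the cognate and non-cognate sites.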

Variant	one-hybrid fitness for binding NBS DNA
TMNT	≤ 0.2
QNFC	≤ 0.2
NINQ	≤ 0.2
EMHA	≤ 0.2
AQNG	≤ 0.2
GVFR	≤ 0.2
SNEQ	≤ 0.2
NPMT	≤ 0.2
KLYY	≤ 0.2
IMKY	≤ 0.2
NPMS	≤ 0.2
KFEG	≤ 0.2
AQLK	≤ 0.2
AVLL	≤ 0.2
KTRL	≤ 0.2
VGTF	≤ 0.2
QETE	≤ 0.2
RPTT	≤ 0.2
TPGC	≤ 0.2
HAMA	≤ 0.2
NDIP	≤ 0.2
GKSH	≤ 0.2
RPDH	≤ 0.2
RFNC	≤ 0.2

Variant	one-hybrid fitness for binding NBS DNA
RGFA	≤ 0.2
YDGG	≤ 0.2
TLYW	≤ 0.2
DPKV	≤ 0.2
YKML	≤ 0.2
AYPP	≤ 0.2
QHTE	≤ 0.2
ALQY	≤ 0.2
GHKI	≤ 0.2
CCLS	≤ 0.2
ALIR	≤ 0.2
HYFR	≤ 0.2
AAGE	≤ 0.2
DAPN	≤ 0.2
VAPV	≤ 0.2
FSFG	≤ 0.2
RHYF	≤ 0.2
QLKW	0.234
WMDV	≤ 0.2
RKME	≤ 0.2
MGLN	≤ 0.2
THNQ	≤ 0.2
IYFS	≤ 0.2
SCCR	≤ 0.2

Variant	one-hybrid fitness for binding NBS DNA
TLNN	≤ 0.2
QGKT	≤ 0.2
HQDC	≤ 0.2
LMHE	≤ 0.2
SHLS	≤ 0.2
IPFR	≤ 0.2
MVFC	≤ 0.2
WVTC	≤ 0.2
ACNY	≤ 0.2
MLVQ	≤ 0.2
QSKL	0.203
RMCN	≤ 0.2
KYPS	≤ 0.2
CIYG	≤ 0.2
KNSS	≤ 0.2
PKAQ	≤ 0.2
TRHH	≤ 0.2
DTPL	≤ 0.2
ASII	≤ 0.2
PTPT	≤ 0.2
WCIS	≤ 0.2
CTVG	≤ 0.2
AVGF	≤ 0.2
RSAA	≤ 0.2

Variant	one-hybrid fitness for binding NBS DNA
FHKR	≤ 0.2
LSDD	≤ 0.2
EGPC	≤ 0.2
RSRY	0.272
CIRL	≤ 0.2
LMMV	≤ 0.2
KRKC	0.254
TSKP	≤ 0.2
GPHN	≤ 0.2
DFLC	≤ 0.2
RIQD	≤ 0.2
WRRN	≤ 0.2
SWMS	0.22
EPPS	≤ 0.2
PRPG	≤ 0.2
SMTS	≤ 0.2
YNRN	≤ 0.2
QQNN	0.231
GKTN	≤ 0.2
LHCS	≤ 0.2
GFPW	≤ 0.2
NASA	≤ 0.2
QHAG	≤ 0.2
WLDV	≤ 0.2

Variant	one-hybrid fitness for binding NBS DNA
KHLR	≤ 0.2
PQMV	≤ 0.2
QYRY	0.486
QLTV	≤ 0.2
YQRE	≤ 0.2
ASVP	≤ 0.2
HKAL	≤ 0.2
MGVD	≤ 0.2
QLIP	≤ 0.2
SKTC	≤ 0.2
SLCA	≤ 0.2
ITND	≤ 0.2
TAEE	≤ 0.2
NCKF	≤ 0.2
QPYE	≤ 0.2
SAKH	≤ 0.2
DNRR	≤ 0.2
WSIS	≤ 0.2
SCTF	≤ 0.2
AFTF	≤ 0.2
HSTD	≤ 0.2
EVLK	≤ 0.2
SKDS	≤ 0.2
VDCF	≤ 0.2

Variant	one-hybrid fitness for binding NBS DNA
RAYT	0.353
MMLS	≤ 0.2
YNPT	≤ 0.2
QSGC	≤ 0.2
RYFG	≤ 0.2
VRKR	0.62
LHDL	≤ 0.2
DPIM	≤ 0.2
LQSW	≤ 0.2
VYLF	≤ 0.2
THNR	≤ 0.2
PLRR	≤ 0.2
SNTD	≤ 0.2
PSMS	≤ 0.2
YLGS	≤ 0.2
KSKF	≤ 0.2
PRIE	≤ 0.2
WLMT	≤ 0.2
RRDL	≤ 0.2
RPGR	≤ 0.2
YVYC	≤ 0.2
RQQF	≤ 0.2
HLVE	≤ 0.2
RTMY	≤ 0.2

Variant	one-hybrid fitness for binding NBS DNA
FGKY	≤ 0.2
SVCN	≤ 0.2
CVPR	≤ 0.2
VIRN	≤ 0.2
SWVS	≤ 0.2
YCNN	≤ 0.2
AKER	≤ 0.2
VKVA	≤ 0.2
NPSM	≤ 0.2
HPAA	≤ 0.2
GRFR	≤ 0.2
RWVK	≤ 0.2
GKYI	≤ 0.2
MLWG	≤ 0.2
VRRS	0.345
NFVG	≤ 0.2
GWYR	≤ 0.2
LSGM	≤ 0.2
YLHK	≤ 0.2
MFDS	≤ 0.2
QTTP	≤ 0.2
TDVG	≤ 0.2
RKKC	0.391
VDRM	≤ 0.2

Variant	one-hybrid fitness for binding NBS DNA
CPED	≤ 0.2
LLKY	≤ 0.2
GNPN	≤ 0.2
PCKM	≤ 0.2
HITL	≤ 0.2
LSTQ	≤ 0.2
IMLC	≤ 0.2
QGPG	≤ 0.2
DVFS	≤ 0.2
RNLI	≤ 0.2
WIYS	≤ 0.2
QMYE	≤ 0.2
TADD	≤ 0.2
PYST	≤ 0.2
MDVG	≤ 0.2
STST	≤ 0.2
SDDT	≤ 0.2
CLKY	≤ 0.2
RKEQ	≤ 0.2
AISR	≤ 0.2
REYS	≤ 0.2
QTIL	≤ 0.2
VTPG	≤ 0.2
NNKT	≤ 0.2

Variant	one-hybrid fitness for binding NBS DNA
RCSG	≤ 0.2
MSEN	≤ 0.2
TRNK	≤ 0.2
AADA	≤ 0.2
DSTN	≤ 0.2
NEMS	≤ 0.2
QKRV	0.41
TDKG	≤ 0.2
KSPG	≤ 0.2
SQRR	≤ 0.2
ICSS	≤ 0.2
ARGV	≤ 0.2
HNHS	≤ 0.2
KDRG	≤ 0.2
QAIF	≤ 0.2
HSEK	≤ 0.2
LLKT	≤ 0.2
DYTR	≤ 0.2
REDR	≤ 0.2
GDND	≤ 0.2
IYDS	≤ 0.2
QQKD	0.345
QGSR	≤ 0.2
IFSS	≤ 0.2

Variant	one-hybrid fitness for binding NBS DNA
LLAK	≤ 0.2
PHKH	≤ 0.2
TGRT	≤ 0.2
QNHL	≤ 0.2
ICQC	≤ 0.2
VFPN	≤ 0.2
TVQV	≤ 0.2
RSKL	≤ 0.2
LWYR	≤ 0.2
TGEG	≤ 0.2
NSSD	≤ 0.2
GCVS	≤ 0.2
GNLG	≤ 0.2
KNLD	≤ 0.2
AVLG	≤ 0.2
YCTC	≤ 0.2
FFSR	≤ 0.2
QQYW	≤ 0.2
PGKK	≤ 0.2
AAMS	≤ 0.2
GQYR	≤ 0.2
VTMC	≤ 0.2
RPRH	≤ 0.2
VQHW	≤ 0.2

Variant	one-hybrid fitness for binding NBS DNA
QNKP	≤ 0.2
HMNC	≤ 0.2
RDPQ	≤ 0.2
ISEV	≤ 0.2
GIYT	≤ 0.2
REIC	≤ 0.2
MPEG	≤ 0.2
YHDY	≤ 0.2
MDNR	≤ 0.2
PEAC	≤ 0.2
VTQG	≤ 0.2
FMST	≤ 0.2
PIPR	≤ 0.2
WTKC	≤ 0.2
NRKY	≤ 0.2
QPVQ	0.598
VHGC	≤ 0.2
RKQM	≤ 0.2
RCKF	≤ 0.2
DFER	≤ 0.2
APNL	≤ 0.2
QYNN	≤ 0.2
PWTA	≤ 0.2
TDAW	≤ 0.2

Variant	one-hybrid fitness for binding NBS DNA
TRQG	≤ 0.2
ITRL	≤ 0.2
MLPC	≤ 0.2
NINV	≤ 0.2
HQLT	≤ 0.2
TLHL	≤ 0.2
RIYC	≤ 0.2
SFWR	≤ 0.2
DMAR	≤ 0.2
YVDA	≤ 0.2
CAIS	≤ 0.2
HGRR	≤ 0.2
RRTD	≤ 0.2
ECHE	≤ 0.2
CLCG	≤ 0.2
RHGW	≤ 0.2
RKEN	≤ 0.2
GTSL	≤ 0.2
GTFE	≤ 0.2
RMVL	≤ 0.2
QNLD	≤ 0.2
RDHY	≤ 0.2
QISF	≤ 0.2
QYEV	≤ 0.2

Variant	one-hybrid fitness for binding NBS DNA
WGLR	≤ 0.2
TAKK	≤ 0.2
FVVG	≤ 0.2
IRRC	≤ 0.2
VWHT	≤ 0.2
IPSC	≤ 0.2
THTG	≤ 0.2
CTRR	0.238
NPFK	≤ 0.2
SASR	≤ 0.2
CWKG	≤ 0.2
GLRA	≤ 0.2
CYMR	≤ 0.2
RQPN	≤ 0.2
RYMS	0.307
ACCG	≤ 0.2
RDSP	≤ 0.2
SPQM	≤ 0.2
